Article PMC7939435
These are yes or no findings as the source states them, for the method shown. Binding seen in cells or lysates may run through a third protein. Some entries that bind do so weakly or less than the wild type.

Amino acid sequences for entries named in this document (tags omitted).
UniProt Q8WUM4: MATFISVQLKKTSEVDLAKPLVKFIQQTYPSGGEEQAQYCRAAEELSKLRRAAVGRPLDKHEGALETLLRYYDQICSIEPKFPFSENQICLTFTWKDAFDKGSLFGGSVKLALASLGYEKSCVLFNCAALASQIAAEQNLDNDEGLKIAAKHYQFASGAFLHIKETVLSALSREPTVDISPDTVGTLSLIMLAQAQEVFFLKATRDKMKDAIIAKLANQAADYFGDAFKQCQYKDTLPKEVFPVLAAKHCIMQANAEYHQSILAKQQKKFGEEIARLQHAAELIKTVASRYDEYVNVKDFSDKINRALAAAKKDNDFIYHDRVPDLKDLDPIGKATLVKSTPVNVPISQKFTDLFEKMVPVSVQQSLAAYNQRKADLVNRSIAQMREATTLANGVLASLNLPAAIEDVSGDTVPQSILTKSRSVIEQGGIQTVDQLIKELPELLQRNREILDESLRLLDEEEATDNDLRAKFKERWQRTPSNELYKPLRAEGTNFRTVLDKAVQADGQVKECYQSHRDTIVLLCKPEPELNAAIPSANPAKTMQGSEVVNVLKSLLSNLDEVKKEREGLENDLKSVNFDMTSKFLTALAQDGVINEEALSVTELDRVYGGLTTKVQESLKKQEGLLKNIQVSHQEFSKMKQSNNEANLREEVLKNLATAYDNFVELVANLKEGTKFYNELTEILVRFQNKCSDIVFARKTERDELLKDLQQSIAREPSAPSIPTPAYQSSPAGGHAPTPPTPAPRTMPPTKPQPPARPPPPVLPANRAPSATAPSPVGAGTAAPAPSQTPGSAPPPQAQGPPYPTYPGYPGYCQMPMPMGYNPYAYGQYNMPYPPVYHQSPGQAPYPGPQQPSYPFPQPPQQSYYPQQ
UniProt Q99816: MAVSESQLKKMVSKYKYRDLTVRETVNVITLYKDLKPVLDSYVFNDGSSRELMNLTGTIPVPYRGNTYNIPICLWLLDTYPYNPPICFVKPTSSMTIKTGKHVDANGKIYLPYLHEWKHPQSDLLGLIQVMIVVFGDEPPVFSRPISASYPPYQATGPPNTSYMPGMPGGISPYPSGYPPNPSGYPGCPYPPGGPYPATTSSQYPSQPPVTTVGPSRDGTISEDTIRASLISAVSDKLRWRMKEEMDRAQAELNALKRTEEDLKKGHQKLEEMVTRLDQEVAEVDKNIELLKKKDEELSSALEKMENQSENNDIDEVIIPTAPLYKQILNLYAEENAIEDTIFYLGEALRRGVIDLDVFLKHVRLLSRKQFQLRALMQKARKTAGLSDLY

Experiments:
[1] = biological target: Gag(Δp6)-GFP (expressed in HEK293 cells) (HIV-1) (UniProt P04591); test: co-IP; as the HEK293 co-IP but with 400 mM NaCl (Fig. S8 C, D)
[2] = biological target: MA-GFP (expressed in HEK293 cells) (HIV-1) (UniProt P04591); test: co-IP; MA-GFP immunoprecipitated from HEK293 lysate with anti-GFP; NaCl as indicated in Figure 4E
GST-MA (HIV-1) = GST-MA (HIV-1) (UniProt P04591); test: pull-down; GST-tagged Gag fragment on GSH-Sepharose incubated overnight with extract of HEK293 cells expressing epitope-tagged ALIX or TSG101, 150 mM NaCl, 1 mg/ml BSA; only the target purified
GST-p6 (HIV-1) [3] = biological target: GST-p6 (HIV-1) (UniProt P04591); test: as above
GST-p6 (HIV-1) [4] = biological target: GST-p6 (HIV-1) (UniProt P04591); test: pull-down; GST-tagged Gag fragment on GSH-Sepharose incubated overnight with extract of HEK293 cells expressing epitope-tagged ALIX or TSG101, 400 mM NaCl, 1 mg/ml BSA; only the target purified
[5] = biological target: Gag(Δp6)-GFP (expressed in HEK293 cells) (HIV-1) (UniProt P04591); test: co-IP; GFP-tagged Gag version immunoprecipitated from HEK293 lysate with polyclonal anti-GFP and Protein A-Sepharose, 50 mM Tris pH 7.5, 150 mM NaCl, 1% Triton, 10% glycerol, 4 °C overnight; ALIX or TSG101 detected by its epitope tag

Measured: binding

ALIX (epitope-tagged) (from UniProt Q8WUM4 1-868)
binds: all assays above

TSG101 (epitope-tagged) (from UniProt Q99816 1-390)
binds: GST-MA (HIV-1) | GST-p6 (HIV-1) [3] | GST-p6 (HIV-1) [4]
